Molecules are shown by their SMILES. In all, about 310,000 compounds went through this assay and about 2,200 (0.71%) showed an effect of 50% or more. Effects have a minus sign here. This is one part of the list.

87 compounds from article PMC4336329 (PLoS ONE, 2015) can be followed below.

This assay deals with human ether-à-go-go-related gene (hERG) potassium channel (human, UniProt Q12809). Briefly: primary screen, population patch clamp on CHO cells stably expressing hERG.
human ether-à-go-go-related gene (hERG) potassium channel, sequence (Q12809 whole entry, looked up): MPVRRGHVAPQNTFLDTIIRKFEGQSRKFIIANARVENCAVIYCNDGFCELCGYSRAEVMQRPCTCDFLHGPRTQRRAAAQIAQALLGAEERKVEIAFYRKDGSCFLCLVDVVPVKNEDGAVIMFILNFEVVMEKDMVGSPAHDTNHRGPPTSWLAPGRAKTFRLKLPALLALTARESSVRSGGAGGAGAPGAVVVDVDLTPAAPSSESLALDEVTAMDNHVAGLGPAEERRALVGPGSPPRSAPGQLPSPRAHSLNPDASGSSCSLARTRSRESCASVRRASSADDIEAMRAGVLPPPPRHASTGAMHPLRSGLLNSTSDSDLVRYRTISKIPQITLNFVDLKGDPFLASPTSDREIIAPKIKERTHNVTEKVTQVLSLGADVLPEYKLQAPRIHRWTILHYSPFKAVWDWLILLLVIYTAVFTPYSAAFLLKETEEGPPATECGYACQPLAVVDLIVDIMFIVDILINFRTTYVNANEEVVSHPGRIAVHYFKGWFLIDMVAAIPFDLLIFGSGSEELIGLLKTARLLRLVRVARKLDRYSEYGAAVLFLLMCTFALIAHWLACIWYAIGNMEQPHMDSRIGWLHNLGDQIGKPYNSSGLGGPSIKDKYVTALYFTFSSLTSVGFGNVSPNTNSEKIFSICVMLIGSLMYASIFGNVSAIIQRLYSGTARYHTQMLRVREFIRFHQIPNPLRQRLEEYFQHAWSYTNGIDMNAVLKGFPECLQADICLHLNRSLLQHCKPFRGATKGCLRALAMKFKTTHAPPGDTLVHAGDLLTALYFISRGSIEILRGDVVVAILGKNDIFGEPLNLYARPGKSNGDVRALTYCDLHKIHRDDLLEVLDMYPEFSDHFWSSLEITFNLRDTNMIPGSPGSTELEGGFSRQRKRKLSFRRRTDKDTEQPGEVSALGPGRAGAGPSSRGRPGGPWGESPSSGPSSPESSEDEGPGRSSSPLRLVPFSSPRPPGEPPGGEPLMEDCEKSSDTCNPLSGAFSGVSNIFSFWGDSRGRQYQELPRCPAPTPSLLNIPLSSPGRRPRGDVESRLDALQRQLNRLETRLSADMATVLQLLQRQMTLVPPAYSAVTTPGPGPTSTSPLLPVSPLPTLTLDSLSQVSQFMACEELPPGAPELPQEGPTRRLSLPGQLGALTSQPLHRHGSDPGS
As to `COC(CN(C(=O)CCl)C(C(=O)NC1CCCCC1)c1ccccc1C)OC` (stereo not drawn), the “hERG current change (%, negative = inhibition) at 1uM” value turned out to be 8.82%. `CN1CCN(c2ccc([N+](=O)[O-])c(N/N=C3\CN4CCC3CC4)c2)CC1`: the “hERG current change (%, negative = inhibition) at 1uM” value was found to be 5.32%.

Consider `Cc1cc2nc3n(c2cc1C)CCCN3`, for which the “hERG current change (%, negative = inhibition) at 1uM” value came out at 5.81%. The figure for `C=CCn1c(=O)[nH]c2cc(C(=O)N3CCN(c4cc(C)ccc4C)CC3)ccc2c1=O` is 2.81%; for `OCC1(CC2CCCCO2)CCN(Cc2cccc(O)c2)CC1` (stereo not drawn) it is 6.68%; for `C=C[C@H]1[C@H](OC2OC(CO)C(O)C(O)C2O)OC=C(C(=O)OC)[C@H]1C[C@H]1CC(=O)C[C@H](CC(=O)CCc2ccc(O)cc2)O1` (stereo partly drawn) it is -3.71%.

`CC(=O)O/N=C(/c1nonc1N)N1CCN(c2ccc([N+](=O)[O-])cc2Cl)CC1`: the “hERG current change (%, negative = inhibition) at 1uM” value is listed as -2.9%. The figure for `O=C(NCc1ccc(F)cc1)C1CCN(S(=O)(=O)c2ccc(Cl)cc2)CC1` is 17.9%; for `O=C(NCc1ccccc1F)C1CC(=O)N(c2ccc3c(c2)OCCO3)C1` (stereo not drawn) it is 11.3%.

`Cc1c(NC(=O)c2cc(-c3ccc4c(c3)OCO4)on2)c(=O)n(-c2ccccc2)n1C`: the “hERG current change (%, negative = inhibition) at 1uM” value is 6.96%.

Take `Cc1occc1C(=O)Nc1cc(S(=O)(=O)N2CCOCC2)ccc1OC(C)C`: the “hERG current change (%, negative = inhibition) at 1uM” value is 8.52%. The figure for `CN1CCN(C(=O)C2=C[C@H](c3csc4ccccc34)C[C@H](OCc3ccc(CO)cc3)O2)CC1` is 2.17%; for `Nc1nc(-c2ccc3ccccc3c2)c(C2(O)C(=O)Nc3c(Br)cc(F)cc32)s1` (stereo not drawn) it is 5.28%. Regarding `COC(=O)c1sccc1NC(=O)/C=C/c1c(Cl)cccc1Cl`, the “hERG current change (%, negative = inhibition) at 1uM” value was determined as 14.3%. For `COc1ccccc1C(=O)N/C(=C/c1ccccc1)C(=O)NC(CCSC)C(=O)O` (stereo not drawn) the value was 12%; for `N#Cc1nc(Cc2cccc3ccccc23)oc1NCc1ccco1`, 1.26%.

As to `CNS(=O)(=O)c1ccc(C(=O)NCC(=O)NCCC(c2ccccc2)c2ccccc2)cc1`, the “hERG current change (%, negative = inhibition) at 1uM” value is listed as -7.79%. For the compound `O=c1[nH]c(=S)n(Cc2ccco2)c(O)c1C=NCc1cccs1`, the “hERG current change (%, negative = inhibition) at 1uM” value is listed as 6.08%. The figure for `c1ccc2c(-c3nnc4n3CCCCC4)c[nH]c2c1` is 7.36%; for `O=C(CN(C(=O)Cn1nnc(-c2ccc(F)cc2)n1)c1ccc(F)c(Cl)c1)NCC1CCCO1` (stereo not drawn) it is 6.28%; for `COc1cc(NC(=O)CNc2ccc(Cl)c(S(=O)(=O)N3CCOCC3)c2)cc(OC)c1` it is 11.6%.

With `COc1cc(C(=O)O/N=C(\N)c2ccc([N+](=O)[O-])cc2)cc(OC)c1OC`, the “hERG current change (%, negative = inhibition) at 1uM” value is -2.49%. On to `Cc1c(C(=O)N2CCN(c3ccccn3)CC2)oc2c1C(=O)CC(C)(C)C2`, for which the “hERG current change (%, negative = inhibition) at 1uM” value was determined as 6.35%. In the case of `O=C(COC(=O)Cn1cnc2ccccc2c1=O)Nc1ccc2c(c1)OCO2`, the “hERG current change (%, negative = inhibition) at 1uM” value amounted to 11.9%.

Take `COc1cc([N+](=O)[O-])cc(/C=N/NC(=O)Cn2cncn2)c1O`: the “hERG current change (%, negative = inhibition) at 1uM” value was determined as 5.47%.

With `Cn1c(=O)c2c([nH]c(=O)n2C)n(Cc2ccccc2)c1=O`, the “hERG current change (%, negative = inhibition) at 1uM” value came to 13.1%.

With `CCN(CC)S(=O)(=O)c1cccc(C(=O)NCC2CCCCC2)c1`, the “hERG current change (%, negative = inhibition) at 1uM” value turned out to be 4.08%. For `CCOc1ccc(C(=O)NCC(=O)Nc2ccncc2)cc1OCC` the value was 10.9%; for `O=C(N/N=C/c1ccccn1)c1sc2ccccc2c1Cl`, 11.2%. The figure for `Cc1ccc(S(=O)(=O)N2CCN(C(=O)COc3ccc(NC(=O)c4ccco4)cc3)CC2)cc1` is 15.2%; for `CCn1c(Cn2nnc(-c3ccccc3)n2)nnc1SCC(=O)N1CCOCC1` it is -1.15%. With `COc1ccc(/C=N/NC(=O)CSc2ccccn2)cc1OC`, the “hERG current change (%, negative = inhibition) at 1uM” value is listed as 10.7%. Regarding `Cc1cc(NC(=O)C2COc3ccccc3O2)no1` (stereo not drawn), the “hERG current change (%, negative = inhibition) at 1uM” value worked out at 5.13%. In the case of `Cc1nc(NC2CCCCC2)c2nnn(Cc3ccccc3Cl)c2n1`, the “hERG current change (%, negative = inhibition) at 1uM” value is 17.8%. The figure for `CC(=O)O[C@]1(C(C)=O)CC[C@H]2[C@@H]3C=C(Cl)C4=CC(=O)CC[C@]4(C)[C@H]3CC[C@@]21C` is -6.51%; for `O=c1oc2ccccc2c(NC2CCCCC2)c1NS(=O)(=O)c1ccc(F)c(Cl)c1` it is 16.5%; for `C(=NC12CN3CN(CN(C3)C1)C2)c1cccs1` it is 7.36%. For `Cc1ccc(S(=O)(=O)N2CCCN(S(=O)(=O)c3ccc4c(c3)OCCO4)CC2)cc1` the value was 8.79%. As for `O=C(c1cccn2c(=O)c3cc(Br)ccc3nc12)N1CCC2(CC1)OCCO2`, the “hERG current change (%, negative = inhibition) at 1uM” value is listed as -14.2%. On to `Cc1ccc(-c2c[n+](CC(=O)Nc3ccccc3)c3n2CCC3)cc1.[Cl-]`, for which the “hERG current change (%, negative = inhibition) at 1uM” value was -3.82%. For `O=C(Nc1nccs1)C1CCN(S(=O)(=O)c2cccs2)CC1` the value was 1.86%. The figure for `Cl.O=C(NCCCn1ccnc1)c1cccc(S(=O)(=O)N2CCCCCC2)c1` is -1.53%; for `CC(C)(Oc1ccc(C2CC2(Cl)Cl)cc1)C(=O)O` (stereo not drawn) it is 5.75%; for `CC(=O)Nc1ccc(NC(=O)C2CCCCC2C(=O)O)cc1` (stereo not drawn) it is 7.1%.

Take `CCOC(=O)c1c(NC(=O)C2=C(C)NC(=S)NC2c2ccc(F)cc2)sc(C)c1C` (stereo not drawn): the “hERG current change (%, negative = inhibition) at 1uM” value was 3.08%. For `O=C(NCCc1c[nH]c2ccccc12)N[C@@H](Cc1ccccc1)C(=O)O`, the “hERG current change (%, negative = inhibition) at 1uM” value is 6%. The figure for `O=C(NCc1ccccc1Cl)c1nnc(CS(=O)(=O)c2ccccc2)o1` is -4.42%; for `CCOC(=O)CCC(=O)NNC(=O)c1ccc(NC(=O)c2ccccc2)cc1` it is 5.93%. In the case of `COc1ccc(OCCn2c(=O)sc3ccccc32)cc1`, the “hERG current change (%, negative = inhibition) at 1uM” value was 4.32%. For `Fc1ccc(NCc2nnc3n2CCCCC3)cc1` the value was 27.4%; for `CC(C)c1ccc(NC(=O)/C(C#N)=C/c2ccncc2)cc1`, -16.4%; for `CCn1c(-c2cc(-c3ccccc3)sc2N)n[nH]c1=S`, 11.7%. Consider `CCc1ccc(-c2c(C)sc(NC(C)=O)c2C(N)=O)cc1`, for which the “hERG current change (%, negative = inhibition) at 1uM” value is recorded as 4.69%.

`O=C(/C=C/c1cccs1)N1CCN(Cc2ccc3c(c2)OCO3)CC1`: the “hERG current change (%, negative = inhibition) at 1uM” value is reported as -2.69%. With `CC(C)(C)NC(=O)CN(CCc1ccccc1)C(=O)c1csnn1`, the “hERG current change (%, negative = inhibition) at 1uM” value is on record as 16.6%. The figure for `C1=C(CCNC2=NCCCCC2)CCCC1` is 7.91%.

In the case of `COc1ccc(NC(=O)c2nc[nH]c2C(=O)N2CCN(c3ccccc3)CC2)cc1`, the “hERG current change (%, negative = inhibition) at 1uM” value is 12.3%. The figure for `COc1cccc(CNC(=O)C(C(=O)NCc2cccc(OC)c2)c2ncc(C(F)(F)F)cc2Cl)c1` is 7.98%; for `COc1ccc(NS(=O)(=O)c2c(C(=O)N3CCCCCC3)c(C)n(C)c2C)cc1` it is 16%.

On to `COc1ccc(CCNC2CCCCC2)cc1.O=C(O)C(=O)O`, for which the “hERG current change (%, negative = inhibition) at 1uM” value came to 9.63%. The figure for `COC(=O)c1cc(=O)n2c(sc3ccccc32)c1C#N` is 14.4%. For `C=CCc1c(Cl)nc(C)nc1NCc1ccccc1` the value was 14.1%; for `Cc1ccc(NNC(=O)c2ccc(Cl)cc2)nn1`, 15%. Turning to `O=c1c2sccc2[nH]c(=S)n1-c1ccccc1`, the “hERG current change (%, negative = inhibition) at 1uM” value amounted to 6.19%. The figure for `COc1cc(OC)c(C(=O)NCc2cccnc2)cc1OC` is 7.5%; for `Cc1ccc(N2CC(C(=O)NCCS(=O)(=O)N3CCN(c4ccccc4)CC3)CC2=O)cc1C` (stereo not drawn) it is 1.93%. As to `CNC(=S)N1N=C(c2ccc(Br)cc2)CC1c1ccc(Br)cc1` (stereo not drawn), the “hERG current change (%, negative = inhibition) at 1uM” value is 4.69%.

For `CCCNS(=O)(=O)c1ccc(CCC(=O)NCC2CCCO2)cc1` (stereo not drawn), the “hERG current change (%, negative = inhibition) at 1uM” value worked out at 13.5%. For the compound `CSCCC(NC(=O)c1ccccc1Br)C(=O)NNC(=O)c1ccco1` (stereo not drawn), the “hERG current change (%, negative = inhibition) at 1uM” value is 14.9%. For `CC1CCCN(c2cc(N(C)CCO)c([N+](=O)[O-])c3nonc23)C1` (stereo not drawn), the “hERG current change (%, negative = inhibition) at 1uM” value was found to be 16%. For `Cc1ccc(C)c(Nc2ccc(C(=O)NCCc3ccccc3)cn2)c1` the value was 10.7%; for `Cc1cc(C(F)F)n2nc(C(=O)Nc3cccnc3Cl)nc2n1`, 15.4%; for `Cc1nc(Cc2nnc(SCC(=O)N(C)c3ccccc3)o2)cs1`, 13.8%. For `COCCNC(=O)CN1CCC(NC(=O)Nc2ccccc2)CC1` the value was 1.27%; for `CC1(OC(=O)C2CCCC2)C(=O)C=C2C=C(c3ccc(C#N)cc3)OC=C2C1=O` (stereo not drawn), 12.1%. The figure for `COCc1ccc(CN2CCCC(CCC(=O)NCc3cccc(OC)c3)C2)o1` (stereo not drawn) is 11%; for `COc1cccc(C(=O)N(CN2CCCC2=O)c2cccc(Cl)c2)c1` it is -3.23%.

In the case of `CCOC(=O)Cn1c(=O)oc2cc(S(=O)(=O)NC3CCCc4ccccc43)ccc21` (stereo not drawn), the “hERG current change (%, negative = inhibition) at 1uM” value was 7.9%. For `O=C(CN1C(=O)NC2(CCCC2)C1=O)Nc1nc2ccccc2[nH]1` the value was 11.6%. The figure for `CCc1ccc(C(=O)OCC(=O)NCCNC(=O)COC(=O)c2ccc(CC)cc2)cc1` is 10.8%. For the compound `Cc1nn(CC(=O)Nc2c(C)n(C)n(-c3ccccc3)c2=O)c(C)c1[N+](=O)[O-]`, the “hERG current change (%, negative = inhibition) at 1uM” value was 8.99%. For `COc1ccc(NC(=S)NC(=O)Cc2ccccc2)c(OC)c1` the value was 15.2%.

On to `CC1CCCCC1NC(=O)c1ccc(S(=O)(=O)N2CCCC2)cc1` (stereo not drawn), for which the “hERG current change (%, negative = inhibition) at 1uM” value is listed as 13.2%.

As for `CC1(C(=O)NC(=S)N(Cc2ccccc2)c2ccccn2)CC1(Cl)Cl` (stereo not drawn), the “hERG current change (%, negative = inhibition) at 1uM” value came out at 12.4%.

For the compound `COc1ccc(C(=O)NNC(=O)CN2CCC(n3nnc4cc(C(F)(F)F)ccc43)CC2)cc1`, the “hERG current change (%, negative = inhibition) at 1uM” value is given as 1.94%. For `c1ccc(-c2noc(-c3ccccc3-c3ccccc3)n2)cc1` the value was 12.5%; for `CCOc1cc(C2C(C(=O)OC)=C(C)N=C3SC(C)C(=O)N32)ccc1OC(C)=O` (stereo not drawn), 1.43%.
